Experiment [1] deals with Receptor-interacting protein kinase 2 (RIPK2) (mouse (endogenous in primary chondrocytes)) (UniProt P58801). Nature of the experiment: co-IP; immunoprecipitation with anti-RIPK2 antibody from lysate of chondrocytes exposed to IL-1β for 6 hours; blots for PP2Ac and MYSM1 (Fig. 6d).
Another experiment concerns the target exogenous RIPK2 S176D (UniProt P58801). The experiment in a line: co-IP; immunoprecipitation of exogenous RIPK2, RIPK2 S176A and RIPK2 S176D with PP2Ac in mouse chondrocytes (Fig. 6h); the precipitating antibody is not stated.
For the next experiment, the target named is exogenous RIPK2 S176A (UniProt P58801). The experiment is described as above.
Experiment [2] addresses exogenous RIPK2 (wild-type Ripk2 plasmid) (UniProt P58801). The description is as above.
Experiment [3] concerns the target Receptor-interacting protein kinase 2 (RIPK2) (mouse (endogenous in primary chondrocytes)) (UniProt P58801). The experiment in a line: co-IP; immunoprecipitation with anti-RIPK2 antibody from chondrocyte lysate, without IL-1β; blots for PP2Ac and MYSM1 (Fig. 6d).
Experiment [4] concerns the target T1, Myb-like, SWIRM, and MPN domains 1 (MYSM1) (mouse (endogenous in primary chondrocytes)) (UniProt Q69Z66).
T1 sequence: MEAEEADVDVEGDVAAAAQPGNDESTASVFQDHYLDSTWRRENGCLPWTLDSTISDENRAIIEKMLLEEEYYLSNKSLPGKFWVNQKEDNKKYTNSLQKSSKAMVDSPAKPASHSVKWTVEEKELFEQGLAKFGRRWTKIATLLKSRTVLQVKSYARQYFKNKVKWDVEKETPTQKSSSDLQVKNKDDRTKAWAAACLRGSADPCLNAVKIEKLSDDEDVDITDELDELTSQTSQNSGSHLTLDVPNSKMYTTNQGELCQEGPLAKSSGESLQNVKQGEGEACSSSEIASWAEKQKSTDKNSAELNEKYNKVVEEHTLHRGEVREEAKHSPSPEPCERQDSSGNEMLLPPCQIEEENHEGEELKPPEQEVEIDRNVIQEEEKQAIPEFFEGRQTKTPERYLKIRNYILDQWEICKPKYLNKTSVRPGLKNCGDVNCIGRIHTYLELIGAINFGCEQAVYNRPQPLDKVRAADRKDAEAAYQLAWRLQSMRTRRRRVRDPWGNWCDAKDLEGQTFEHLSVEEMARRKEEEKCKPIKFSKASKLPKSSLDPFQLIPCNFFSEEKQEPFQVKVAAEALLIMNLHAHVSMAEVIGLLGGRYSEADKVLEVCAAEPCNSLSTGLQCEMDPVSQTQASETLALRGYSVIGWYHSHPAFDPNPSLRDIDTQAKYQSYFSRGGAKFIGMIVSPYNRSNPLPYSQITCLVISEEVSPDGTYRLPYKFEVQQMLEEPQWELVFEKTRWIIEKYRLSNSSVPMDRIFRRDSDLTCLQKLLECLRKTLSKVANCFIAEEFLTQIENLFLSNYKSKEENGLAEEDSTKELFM
Nature of the experiment: co-IP; endogenous proteins in lysate of mouse primary chondrocytes; primary antibody or IgG with protein A/G beads, overnight at 4 °C; RIPK2 co-immunoprecipitated with MYSM1 (Fig. 4h); also after IL-1β induction for 15, 30 and 60 minutes, which weakened the interaction (Fig. 4k).

By UniProt entry, the sequences of proteins in these tests, tags left out. Where a name states a change or a piece, a line headed by the entry shows the natural chain unless it says otherwise.
UniProt P58801: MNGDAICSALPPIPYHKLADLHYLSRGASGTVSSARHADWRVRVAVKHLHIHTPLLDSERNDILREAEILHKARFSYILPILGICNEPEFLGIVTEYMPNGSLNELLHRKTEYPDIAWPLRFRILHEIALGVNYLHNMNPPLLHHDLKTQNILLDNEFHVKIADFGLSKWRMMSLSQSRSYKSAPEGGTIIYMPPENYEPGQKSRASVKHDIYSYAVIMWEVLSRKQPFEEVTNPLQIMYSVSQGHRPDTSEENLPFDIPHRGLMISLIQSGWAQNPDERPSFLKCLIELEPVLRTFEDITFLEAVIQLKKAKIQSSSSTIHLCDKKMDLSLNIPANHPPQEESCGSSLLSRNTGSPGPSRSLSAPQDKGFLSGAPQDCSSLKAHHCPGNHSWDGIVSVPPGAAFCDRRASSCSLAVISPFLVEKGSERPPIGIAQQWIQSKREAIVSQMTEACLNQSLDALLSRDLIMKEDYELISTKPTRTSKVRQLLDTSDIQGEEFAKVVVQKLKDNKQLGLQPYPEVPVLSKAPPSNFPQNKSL
UniProt P63330: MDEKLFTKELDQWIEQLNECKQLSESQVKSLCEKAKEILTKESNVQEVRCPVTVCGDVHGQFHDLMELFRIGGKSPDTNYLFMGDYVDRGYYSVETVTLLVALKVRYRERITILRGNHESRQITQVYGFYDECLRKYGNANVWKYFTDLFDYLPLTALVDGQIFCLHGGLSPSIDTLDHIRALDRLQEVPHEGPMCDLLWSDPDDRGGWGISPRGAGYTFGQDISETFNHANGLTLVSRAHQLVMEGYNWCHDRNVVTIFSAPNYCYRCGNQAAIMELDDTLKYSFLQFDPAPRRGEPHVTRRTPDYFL

These are yes or no findings as the source states them, for the method shown. In cells and extracts the contact can be indirect. Some entries that bind do so weakly or less than the wild type.

Consider 3 molecules from article PMC11696715.

As for “Ppp2ca (PP2Ac), catalytic subunit (C subunit) of protein phosphatase 2A (from UniProt P63330 1-309) (enzyme)”, the binding entry in experiment [1] was “no binding (condition: with IL-1β exposure for 6 hours)”; in the experiment with exogenous RIPK2 S176D, “binds”; with exogenous RIPK2 S176A it was “binds”; in experiment [2], “binds”; in experiment [3] it was “binds”.

Regarding “Receptor-interacting protein kinase 2 (RIPK2) (from UniProt P58801 1-539)”, the binding result in experiment [4] is “binds”.

B1: Myb-like, SWIRM, and MPN domains 1 (MYSM1) (protein, UniProt Q69Z66 1-819)
chain: MEAEEADVDVEGDVAAAAQPGNDESTASVFQDHYLDSTWRRENGCLPWTLDSTISDENRAIIEKMLLEEEYYLSNKSLPGKFWVNQKEDNKKYTNSLQKSSKAMVDSPAKPASHSVKWTVEEKELFEQGLAKFGRRWTKIATLLKSRTVLQVKSYARQYFKNKVKWDVEKETPTQKSSSDLQVKNKDDRTKAWAAACLRGSADPCLNAVKIEKLSDDEDVDITDELDELTSQTSQNSGSHLTLDVPNSKMYTTNQGELCQEGPLAKSSGESLQNVKQGEGEACSSSEIASWAEKQKSTDKNSAELNEKYNKVVEEHTLHRGEVREEAKHSPSPEPCERQDSSGNEMLLPPCQIEEENHEGEELKPPEQEVEIDRNVIQEEEKQAIPEFFEGRQTKTPERYLKIRNYILDQWEICKPKYLNKTSVRPGLKNCGDVNCIGRIHTYLELIGAINFGCEQAVYNRPQPLDKVRAADRKDAEAAYQLAWRLQSMRTRRRRVRDPWGNWCDAKDLEGQTFEHLSVEEMARRKEEEKCKPIKFSKASKLPKSSLDPFQLIPCNFFSEEKQEPFQVKVAAEALLIMNLHAHVSMAEVIGLLGGRYSEADKVLEVCAAEPCNSLSTGLQCEMDPVSQTQASETLALRGYSVIGWYHSHPAFDPNPSLRDIDTQAKYQSYFSRGGAKFIGMIVSPYNRSNPLPYSQITCLVISEEVSPDGTYRLPYKFEVQQMLEEPQWELVFEKTRWIIEKYRLSNSSVPMDRIFRRDSDLTCLQKLLECLRKTLSKVANCFIAEEFLTQIENLFLSNYKSKEENGLAEEDSTKELFM
As to B1, in experiment [3], the binding result is “binds”.
